Experimental data reported in PubChem BioAssay AID1347165 (National Center for Advancing Translational Sciences (NCATS), 2019).
Out of some 220,000 compounds screened, about 5,700 (2.6%) were called active. This list was built around the results that the source calls inconclusive (neither active nor inactive); the mix of calls is not that of the screen. The call rests on the fitted dose curve; in most records, active means well fitted inhibition curve with a large enough effect; inconclusive means small, poorly fitted or top-dose-only effect; inactive means no such curve, though single readings can be large or run the other way. A potency beside an inconclusive call is a rough fit, not a confirmed value.

target: Lysine-specific demethylase 5B (Homo sapiens) (UniProt Q9UGL1); experiment: Primary screen for KDM5B Histone Demethylases FDH-coupled qHTS; conditions: FDH-coupled NADH fluorescence (FDH is formaldehyde dehydrogenase); activity change, negative = inhibition: at 57.7 µM (top of the series) unless noted; further: nearly all actives have a fitted effect of over 70% in size; on activity change, negative = inhibition: 0% is about no effect
How it was run: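 qHTS format, multiple compound concentrations. Buffer 50 mM HEPES pH 7.5/0.01% Tween-20; 200 nM KDM5BΔAP final; 10 min compound preincubation; substrate-mix levels 12.5 µM peptide, 25 µM α-KG, 0.25 mM NAD⁺; 30 min RT; ΔRFU.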
Potency means the concentration at half of the fitted maximal effect; tags describe the fitted curve by direction and shape.

Sequence of UniProt Q9UGL1 (Q9UGL1 whole entry, looked up): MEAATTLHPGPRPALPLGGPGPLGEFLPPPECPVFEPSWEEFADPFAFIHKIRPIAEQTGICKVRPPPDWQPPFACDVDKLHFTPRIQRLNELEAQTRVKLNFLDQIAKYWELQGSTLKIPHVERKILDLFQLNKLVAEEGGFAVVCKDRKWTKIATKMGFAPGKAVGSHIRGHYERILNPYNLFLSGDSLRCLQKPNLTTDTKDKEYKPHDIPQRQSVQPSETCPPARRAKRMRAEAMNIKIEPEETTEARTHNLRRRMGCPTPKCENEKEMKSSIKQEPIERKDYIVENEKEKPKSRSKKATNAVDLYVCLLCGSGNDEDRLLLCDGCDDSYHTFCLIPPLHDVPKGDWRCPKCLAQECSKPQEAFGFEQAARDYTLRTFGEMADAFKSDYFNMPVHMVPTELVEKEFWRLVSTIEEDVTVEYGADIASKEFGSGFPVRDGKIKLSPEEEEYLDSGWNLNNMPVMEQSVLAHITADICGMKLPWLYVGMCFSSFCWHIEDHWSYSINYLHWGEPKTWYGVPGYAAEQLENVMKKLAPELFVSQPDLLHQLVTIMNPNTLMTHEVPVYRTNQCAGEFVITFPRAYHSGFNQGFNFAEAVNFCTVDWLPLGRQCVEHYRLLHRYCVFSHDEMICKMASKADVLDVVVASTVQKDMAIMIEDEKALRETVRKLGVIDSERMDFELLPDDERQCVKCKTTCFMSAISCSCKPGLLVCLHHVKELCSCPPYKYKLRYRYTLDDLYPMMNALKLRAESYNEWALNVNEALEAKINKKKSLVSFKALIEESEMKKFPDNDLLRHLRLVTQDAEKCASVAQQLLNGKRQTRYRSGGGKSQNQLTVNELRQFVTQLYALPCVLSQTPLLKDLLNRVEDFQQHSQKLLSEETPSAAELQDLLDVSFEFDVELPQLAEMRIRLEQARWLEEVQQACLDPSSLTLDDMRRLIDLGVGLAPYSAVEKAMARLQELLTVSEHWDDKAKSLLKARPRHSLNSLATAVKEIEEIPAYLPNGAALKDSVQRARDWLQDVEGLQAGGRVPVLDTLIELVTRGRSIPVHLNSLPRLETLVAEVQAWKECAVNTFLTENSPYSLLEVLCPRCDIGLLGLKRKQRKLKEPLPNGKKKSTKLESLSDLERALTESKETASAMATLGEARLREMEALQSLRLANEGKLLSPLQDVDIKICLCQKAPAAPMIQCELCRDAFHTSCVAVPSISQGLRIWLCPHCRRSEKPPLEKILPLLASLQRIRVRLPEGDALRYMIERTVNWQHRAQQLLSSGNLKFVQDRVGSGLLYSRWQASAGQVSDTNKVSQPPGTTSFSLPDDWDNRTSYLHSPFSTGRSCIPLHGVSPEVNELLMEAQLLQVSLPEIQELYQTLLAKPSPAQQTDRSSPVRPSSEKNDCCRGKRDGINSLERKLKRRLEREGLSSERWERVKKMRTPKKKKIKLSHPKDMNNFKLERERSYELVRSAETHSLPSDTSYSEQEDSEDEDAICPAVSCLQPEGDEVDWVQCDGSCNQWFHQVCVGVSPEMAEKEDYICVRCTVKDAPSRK

Structure (SMILES)	Potency	activity change, negative = inhibition
COc1ccc(NC(=O)N[C@@H]2C=C[C@@H](c3c(C)nn(-c4ccc(C(C)(C)C)cc4)c3C)C2)cc1	inconclusive: 17.8 µM [inhibitor, single point]	
CCOc1cc(C(=O)OCC(=O)NC(N)=O)cc(OCC)c1OCC		inactive: 11.4%
O=[S+]([O-])(Nc1cccnc1)c1ccc2c(c1)OCCN(CC1CCOCC1)C2		inactive: -6.75% [at 86.2 µM]
CC1(c2ccccc2)N(Cc2cccnc2)C(=O)OC12CCN(C(=O)C1CCC1)CC2 (stereo not drawn)	inconclusive: 11.2 µM [inhibitor, partial curve, poor fit]	
COc1ccc(NC(=O)c2cc3c(N(C)Cc4ccccc4)nc(C)cn3n2)cc1OC	active: 31.6 µM	
COc1ccccc1-c1cc2c(ccn2CC2CCN([S+](C)(=O)[O-])CC2)c(N2CCOCC2)n1	inconclusive: 3.16 µM [inhibitor, partial curve, poor fit]	
Clc1ccc(-n2cc(-c3ccccc3)cc2-c2ccccc2)cc1	inconclusive: 12.6 µM [inhibitor, partial curve, poor fit]	
Cc1cc(=O)cc(C(=O)N2CCC(O)(CN3CCOCC3)C(C)(C)C2)o1 (stereo not drawn)	inconclusive: 35.5 µM [inhibitor, partial curve, poor fit]	
CC(=O)NC(C(=O)N1CCC(c2nc3ccccc3s2)CC1)C(C)C (stereo not drawn)		inactive: -1.18%
COc1ncccc1-c1cnc2[nH]cc(CC(=O)Nc3ccccc3C)c2c1	inconclusive: 14.1 µM [inhibitor, partial curve]	
CN(CC(=O)N(C)C)Cc1ncc(-c2ccccc2)o1		inactive: -3.55%
c1coc(-c2ccnc3nc(C4CC4)nn23)c1	active: 28.2 µM	
COc1ccc(-c2cn3cccnc3n2)cc1NC(=O)c1c(F)cccc1F	inconclusive: 31.6 µM [inhibitor, partial curve, poor fit]	
COc1cccc(CNC(=O)C2CCN(S(=O)(=O)c3ccc4c(ccn4C)c3)CC2)c1	inconclusive: 17.8 µM [inhibitor, partial curve, poor fit]	
CCc1cccc(C)c1NC(=O)Cn1ccn2nc(-c3ccc(F)cc3)c(CO)c2c1=O	inconclusive: 15.8 µM [inhibitor, partial curve]	
Cc1c(CC(=O)NCCc2ccccc2)c(=O)oc2cc(O)ccc12	inconclusive: 1.58 µM [inhibitor, partial curve, poor fit]	
O=C(NCc1nc(-c2cccs2)no1)c1ccc(Oc2cccnc2)cc1		inactive: -11.2%
CN(C)C(CNc1oc(-c2ccc(Cl)cc2)nc1C#N)c1cccs1 (stereo not drawn)	inconclusive: 15.8 µM [inhibitor, partial curve, poor fit]	
COc1ccc(-c2cc3c(nc2-c2ccccc2)nc(C(=O)NCCN(C)C)n3C)cn1		inactive: 2670% [at 86.2 µM]
COc1cccc(-c2[nH]ncc2CN)c1		inactive: 5.29%
CCOc1cc(C2C(C(=O)OC)=CN(Cc3ccc(Cl)cc3)C=C2C(=O)OC)ccc1O	inconclusive: 31.6 µM [inhibitor, single point]	
CCn1c(=O)c2cc(C(=O)N(CCCOC(C)C)Cc3ccco3)sc2c2ccccc21	inconclusive: 31.6 µM [inhibitor, partial curve, poor fit]	

Structure (SMILES)	Potency	activity change, negative = inhibition
CN(C)CC(=O)N1CCN(C(=O)C=C(C2CC2)C2CC2)CC1		inactive: 3.75%
CC(=O)c1cccc(NC(=O)Cn2c(=O)c(CNc3ccc(C)cc3)cc3cc4c(cc32)OCCO4)c1	inconclusive: 1.41 µM [inhibitor, full curve, poor fit]	
CCc1nncn1C1CCN(C(=O)Nc2ccc(Cl)cc2F)C1 (stereo not drawn)		inactive: -9.28%
COc1ccccc1C(=O)Nc1ccc2nc(N3CCC(C)CC3)cc(C)c2c1	inconclusive: 35.5 µM [inhibitor, partial curve, poor fit]	
C=CCNC(=O)c1cc(-c2ccc3ccccc3n2)nc2ccccc12		inactive: -17.3%
COc1cccc(CN2CCCC(c3nc(CCOc4cccc(C)c4)no3)C2)c1 (stereo not drawn)		inactive: -4.81%
O=C(NCCc1ccccn1)c1cn2ccnc(-c3ccccc3)c2n1	inconclusive: 3.98 µM [inhibitor, full curve]	
CCn1cc(-c2cc3c(cn2)CN(Cc2cccnc2)CCN3)cn1	active: 31.6 µM	
CCOC(=O)c1cnc2ccc(Br)cc2c1Nc1cccc([N+](=O)[O-])c1		inactive: 2.4%
c1ccc2c(c1)OCCc1c-2[nH]c2ccccc12	inconclusive: 31.6 µM [inhibitor, partial curve, poor fit]	
CCOC(=O)N/N=C1\c2ccccc2C2(O)NC(=O)NC12O (stereo not drawn)	inconclusive: 22.4 µM [inhibitor, partial curve, poor fit]	
CC(C)C[C@H](CO)NC(=O)C[C@@H]1c2nc(-c3cccnc3)sc2C[C@@H]2[C@](C)(CO)[C@H](O)CC[C@]21C	active: 31.6 µM	
Oc1ccccc1CN1CCNc2cnc(-c3ccccc3)cc2C1	inconclusive: 35.5 µM [inhibitor, partial curve, poor fit]	
O=C(Nc1ccc2nnc(-c3ccc(C(=O)N4CCSCC4)cc3)n2c1)C1CCC1	active: 28.2 µM	
COc1cccc(CC(=O)Nc2ccc3nc(N4CCC(C)CC4)cc(C)c3c2)c1	inconclusive: 28.2 µM [inhibitor, partial curve, poor fit]	
Cc1ccc(C2=CC(c3c(F)cccc3Cl)n3ncnc3N2)cc1 (stereo not drawn)	inconclusive: 28.2 µM [inhibitor, single point]	
N#Cc1ccccc1OCC(=O)NC(=O)NCc1ccco1	inconclusive: 31.6 µM [inhibitor, single point]	
COCC1CN(C2CCC2)CC12CCN(C(=O)c1nccc3ccccc13)CC2 (stereo not drawn)	inconclusive: 17.8 µM [inhibitor, partial curve]	
Cc1ccc(NC(=O)c2nccnc2-c2nc3ccccc3s2)cc1Cl		inactive: -7.42%
O=C(NCCC1COc2ccccc2O1)c1ccc(N2CCCOCC2)nc1 (stereo not drawn)	inconclusive: 39.8 µM [inhibitor, single point]	
Cn1cc(CN2C[C@H](C(=O)Nc3cccnc3)C[C@H]2c2cccc(C(F)(F)F)c2)cn1	inconclusive: 56.2 µM [inhibitor, single point]	
